From the supplement of paper PMC3334620
Whole data set: some 33,000 sequences, median “E-score (-0.5 to 0.5)” near -0.056, cut for the highest 2% near 0.38. This is one part of the list.

The sequences below were run against Stb4 (UniProt P50104) (assay: PBM E-score (8-mer binding enrichment) (E-score (-0.5 to 0.5)); higher = stronger / more preferred TF binding; most listed sequences are background and not binding sites). Settings: protein concentration: 200 nM; construct: GST-DNA-binding domain.
Outline: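 GST-tagged yeast TFs (full-length or DNA-binding domain) were made by PURExpress in vitro transcription/translation and applied at about 100-200 nM to universal all-10-mer Agilent arrays. The arrays were made double-stranded by primer extension, on fresh or once-stripped slides. Bound protein was detected with fluorescent anti-GST, and scans were normalised with masliner. Each ungapped eight-base word, pooled with its reverse complement, received an E-score (modified Wilcoxon-Mann-Whitney statistic) from the Universal PBM Analysis Suite.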

Sequence	PBM E-score
GCTGTCAA	-0.0775
AAGGAAGG	-0.18
CACTAGTC	-0.154
GTGCACTA	0.00179
ACCAGTGC	-0.227
CGGTAAGA	0.271
AAGTGAGT	-0.139
CCCACGGG	0.128
AACTGTGC	-0.157
CAAGCTCC	0.0378
ATTTGAAC	0.124
ATAAATCC	0.151
AACAAAGT	0.00095
CCCGATTC	0.274
ACACTGAC	-0.0283
CTTCGTCA	-0.177
CGATACAC	-0.0871
CCCGCCAC	0.119
TACGCCAA	-0.259
AAAGGGCG	-0.101
CGCCGAGA	0.361
AATATATG	0.0875

Sequence	PBM E-score
ACACGGGC	0.198
AGTACTCC	0.0979
CGTCAGCA	-0.142
GATCTAAC	-0.0701
AATTTTCT	0.0431
AACAGTCT	-0.182
AACCAATA	-0.0126
AAGTGTTG	0.032
CCCCTCCG	0.22
TACAGTCA	-0.187
AACGAACC	-0.118
CCAGTTGC	-0.0304
TGCCCCCA	-0.311
ACAGCGAA	-0.113
TGAGAGCA	-0.178
ATCATTAA	0.0733
CATCAGCA	-0.0939
CGTGGCTA	-0.164
ACCGTTCG	0.137
CATTGGGA	-0.114
AATCAATA	-0.0212
GATCCATC	0.141

Sequence	PBM E-score
ACGAAGAC	-0.242
CGCTCTGA	-0.111
CCCCGGTC	0.174
CAAGAGGC	-0.305
CCTTCGAC	-0.143
GATCTCTA	-0.0683
ACTTAACG	-0.264
CACGCTGC	-0.0655
AGGTCCAC	-0.122
AAAGCGGT	0.0797
ATGTTCGC	-0.118
AAATCTGT	-0.0754
CAGTGTTC	0.0908
CCACTGCG	-0.0112
ATCTCGTC	0.00476
AGCCCAAG	-0.0203
AAAATAGT	-0.147
ACAAGCGA	-0.0167
GAGCGGCC	0.0657
CCTGATAC	-0.148
CGCCTTTA	-0.0578
CAATTATA	-0.0776

Sequence	PBM E-score
CGGTAGTA	0.189
CCAGTCTA	-0.238
GCTTGTGA	-0.242
ACGGGTGC	0.222
GCTGCCTA	-0.191
AAATCTAC	0.00968
ACCTGTCA	-0.117
CACCTATG	-0.121
CATGTTCC	0.115
GCGTGCTA	-0.29
ATAGATGG	-0.227
CTGCTCTA	-0.191
CGGCACGA	0.296
ACACCTAG	-0.277
GCCCAATA	-0.00539
ATTGTCAC	-0.122
AGAGACCG	0.018
CCTAACCA	-0.216
TCACCAGA	-0.211
GGGTAGCA	0.209
